# Source: the supplement of paper PMC10126150
# Sequences with one replicate were seen in a single cluster, so their values are uncertain.
# Test system: ATP
# Assay: switch fluorescence ratio, 500 uM ATP over buffer (Cy3 cluster intensity, sum of 5 cycles each) (fold (ratio)); higher = stronger signal-on switching upon ATP binding; sequences stand for … in TCGTCGGCAGCGTCAGATGTGTATAAGAGACAGTTTTTTTTTTTTTTTTTTTTTTTTT…TC
# Conditions: aptamer strand: ATP DNA aptamer (quencher-CACCTGGGGGAGTATTGCGGAGGAAGG + anchor), 100 nM annealed; ATP concentration: 500 uM; one replicate
# In short: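 Per cluster, summed Cy3 intensity from the target cycles was divided by that from the buffer cycles to give the fluorescence ratio, then averaged per switch-domain sequence. Clusters outside 100-1000 RFU were excluded. The Cy3-labelled switching-strand clusters, on a modified Illumina MiSeq flow-cell, were annealed to 100 nM quencher-labelled ATP aptamer and imaged in selection buffer, then after 15 min with 500 uM ATP at 22 °C, for five cycles with NaOH stripping and re-annealing between them.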
# 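Note: ATP exposure 15 min at 22 °C before imaging.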
row,Sequence,switch fluorescence ratio
1,CAGCATGCAT,0.994
2,GAGAGTCTGC,0.991
3,GAGAAGCCGA,0.998
4,GAGACAGCCC,1.65
5,GTGAAAAGAC,0.994
6,CACGATCATG,1.09
7,TCCCAAATGT,0.97
8,TGCAGGCCCC,1.05
9,CTCGGTGATA,1.08
10,ATTTATGGCG,1.03
11,TACCCTTTAC,1.22
12,TCAGCAAGG,3.25
13,AAGGCCTGGG,0.977
14,ATTCCACATA,1.06
15,CTTGTTGGTA,1.03
16,TAGTGAGCAC,0.988
17,TTGGCAATGG,1.52
18,GAGCATCCG,1.08
19,CCATGGGAGT,1
20,CGAGCGGCGT,1.03
21,GTCCGGCACA,1.09
22,TATACGTATA,1.05
23,GTAGTCAGCT,0.988
24,ACGAAATCTT,1.02
25,CCCAATGGGT,0.994
26,AGTCTGTTGG,1.02

row,Sequence,switch fluorescence ratio
1,CATATATATT,1
2,TGGCCAGCTA,1.01
3,CCTGTAGACA,1.03
4,ATTGTTCTAG,0.991
5,CGCAAGAGTC,4.45
6,TAGTTTGCAA,1.14
7,GTTTTGCGCA,1
8,TCTTGTTCTT,0.969
9,ATTGTTGCCC,0.969
10,AAATGTTGTT,1.03
11,AGGTCAAAGC,0.986
12,GGGACTTGTC,0.996
13,CCTAAGTTCG,0.999
14,AAGGATAGGT,1.03
15,ACTATTAATT,1.1
16,AAGTGGCGGT,1.01
17,TACGGTATGG,1.1
18,GTAGGCCGCT,1
19,GAGTCCCCGT,1.01
20,GCGCAAAAGA,1.04
21,TTACTGGTG,1.19
22,GCGGGGCTTG,1.01
23,CTGGCTTGAG,0.955
24,ATACCTTTAC,1.33
25,AGAATAGAAG,0.991
26,GGGAAGCTTG,1.05

row,Sequence,switch fluorescence ratio
1,AGCTGATGTT,1.03
2,AAGCGCGCCA,1.03
3,TAAGTGCAAA,0.956
4,AACATACGCA,1.29
5,ATTTGCAGCT,0.976
6,ATGTTGTTTC,0.952
7,GGGTATGAGT,0.981
8,GATACGGGTC,0.984
9,GGTGATCCCA,0.982
10,CATCTAGTGG,0.964
11,TGAGTGTTCC,1.01
12,TACGCACCGT,1.61
13,TGGGCTCATC,0.994
14,GCCGTGGTCA,1
15,AAACCGATC,2.52
16,ATACTATGGC,0.991
17,AAGAGTCAAC,0.961
18,ACTTTACGGA,1.3
19,AGCTGGTTAT,0.961
20,TAGAGGGACG,1.12
21,TTCAGGAACT,0.977
22,ATAGCTGTTG,1.01
23,TACCGGTA,0.958
24,TGGGGTTTTA,0.985
25,CTAGGCCATT,1.02
26,AAATAACTTG,0.99

row,Sequence,switch fluorescence ratio
1,AAGTACGAGC,1.2
2,GTTCCCCGCG,4.33
3,TCCTTAAAAC,1.12
4,AACTAGTCTT,0.974
5,AGGTTCAAGT,0.996
6,GTAATAATAT,0.977
7,TCTGGGTTTT,1.04
8,TAAGAATGTA,1.03
9,AGTACAGGAT,1.01
10,ATCCTATGGG,1
11,GAAAATGACA,1.01
12,GTGAAGCCGG,1.03
13,AGGCCTTGCT,0.946
14,GCAGTGCCCA,1.01
15,GTTCACCCGA,1.02
16,GAACCCGTCC,1.68
17,CTAGCTAATC,1.43
18,GAAGGAAAGC,1.01
19,GACAAAGTAT,0.988
20,GCGCTACAAT,1.03
21,TTTTTCTAGA,1
22,CAGTTGCTAA,1.03
23,TTCACAGTTC,1.06
24,AAAGTAT,1
25,TGTATTGAGA,0.994
26,CCATTCAACG,1.02

row,Sequence,switch fluorescence ratio
1,GGAAGCTCGG,1.01
2,CGGAACGGTT,1.01
3,TGGCGTATCT,1.04
4,CCCATAGCCG,1.01
5,CAATCTTAAC,0.996
6,TTCGCTGTG,1.05
7,TTCCAGTGCA,1.05
8,CGTTAGGAA,1.04
9,GTCTCCCCGT,1.24
10,TTCTCCC,1.42
11,GCTTTGGCCT,1.01
12,TGGCGTGTGT,1.02
13,AGCTGTATTC,0.97
14,CCAATATATT,1.11
15,GCCTCGGTCT,1.05
16,GGTCGGTTTC,0.967
17,ACCTATGT,1.02
18,TCACATGGC,0.984
19,GGTAGGCGGT,0.99
20,TGTTCTTAAA,0.964
21,TTCTGGCGAA,1.33
22,GATGGAATTG,0.986
23,TTCTAGCTGA,0.957
24,GGTCCATCGC,1.07
25,ACTTTTTGAT,0.975
26,TGGGGGTAT,0.976

row,Sequence,switch fluorescence ratio
1,ATACGGGCCC,1.04
2,AGAAAATGAA,1.04
3,CACGATTTTC,0.925
4,GTATGGCCTT,1.02
5,GGTAGTCT,0.906
6,CGCACCACGT,1.04
7,AGCATGGTGT,1.05
8,TGCGCCAGAA,0.944
9,GATGGGTGTA,1.03
10,GCCTAGTCCC,1.01
11,TCCGTTGCTT,1.32
12,AGCAAGAATA,1.09
13,ATAAGATGCA,1.21
14,CAATCTTACA,1.03
15,GCATGTAGGG,0.989
16,CTATCTTAGT,0.996
17,CCAGGTCCTT,1.07
18,CCATCGAGTA,1.02
19,ACCCGTATTG,1.04
20,TTGGTAGAA,1
21,TTAGCTTTCG,1.02
22,CCCATCGTAC,1.51
23,CATTAGTATC,0.951
24,TGGAAAAAGT,0.991
25,TCTAACGCA,1.95
26,ACATTTAATA,1.01

row,Sequence,switch fluorescence ratio
1,CCTCCAAGGT,1.18
2,TGTCTGTCAT,1.03
3,AGGCACGGGT,0.978
4,TCGTCTTCTA,0.992
5,GGGAGTCAAA,1.05
6,TTGAACCGGA,1.45
7,ACGGTGCT,1.01
8,CGGTGCTCTC,1.02
9,AAGAGTCTGC,0.981
10,GGTGCTGGAT,1.09
11,TCGATCTTTA,1.03
12,GTGTGCTACA,1.03
13,CCGGAAGGCG,1.03
14,AGTTTAAGTC,1.03
15,CTGGGTGGTC,1
16,GCCAACTAGA,1
17,AGGCCAGCTC,1.01
18,CTGCAGATGA,1.04
19,TTAGGGATTC,0.982
20,ACGCTGGGTT,0.993
21,ACCGCAGTAT,4.45
22,CACAGGGTTG,1.04
23,GGAGAATAGT,1.03
24,CAGGACGTGA,1.05
25,GGTGTCGCAA,1.04
26,TCGCGACACT,2.07

row,Sequence,switch fluorescence ratio
1,AGTAGGATAC,0.97
2,ACGATGCGGT,1.32
3,CCCCAACCCC,1.33
4,GGTTAGAGT,0.959
5,GACTTAGAAG,1.07
6,ACAGAGGACT,0.967
7,GGCAGTAGCG,1.04
8,TAGGGATCAA,1
9,TCATGGTGTG,0.98
10,CTCGATGAAG,0.998
11,CTTGAGGTTT,0.984
12,TAGTACTGG,1.05
13,TGTCCTTTAG,0.959
14,ACAGGGGGCA,0.978
15,ACTTACATCG,1.13
16,AATACTATAT,1.04
17,ACATGGCTGG,1.02
18,CGAGAATCCG,0.999
19,GTGAAATCTG,0.887
